{"source": "PubChem BioAssay AID588855", "about": "(National Center for Advancing Translational Sciences (NCATS), 2011)", "note": "Values joined by “and” are separate entries in the source; they are usually repeats but may differ in a detail not shown here. Equal entries are not always repeated. About 5,000 (1.2%) of roughly 410,000 compounds were called active. The shares of active, inactive and inconclusive entries below differ from those in the screen. Calls come from the whole dose curve; as a rule, active = well fitted inhibition curve with a large enough effect; inconclusive = small, poorly fitted or top-dose-only effect; inactive = no such curve, though single readings can be large or run the other way. Where the call is inconclusive, the potency comes from a doubtful curve fit. Potency is the fitted concentration of half-maximal effect; tags give direction and shape of the fitted curve.", "data": [{"test": "qHTS for Inhibitors of TGF-b; note: nearly all actives have a fitted effect of over 65% in size", "conditions": "HepG2 CAGA-GFP TGF-b/SMAD3 reporter, GFP fluorescence, 18 h, TGF-beta stimulated, 500 pg/mL final; series mostly up to 46.1 µM", "outline": "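Inhibition of TGF-beta-driven CAGA-GFP reporter expression in HEPG2 cells is measured by cellular GFP fluorescence after 18 h stimulation with 500 pg/mL recombinant TGF-beta in 1% FBS medium at 37 degrees C.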", "values": [{"compound": "CN(C(=O)CSc1nc(-c2ccc(C(C)(C)C)cc2)c(C#N)c(=O)[nH]1)C1CCCCC1", "Potency": "inconclusive: 35.5 µM [inhibitor, single point]"}, {"compound": "NS(=O)(=O)c1ccc(N/N=C/c2cn(-c3ccccc3)nc2-c2ccccc2)c([N+](=O)[O-])c1", "Potency": "active: 5.62 µM"}, {"compound": "COc1cc(NC(=O)COC(=O)c2[nH]c(C)c(C(C)=O)c2C)cc(OC)c1", "Potency": "inconclusive: 14.1 µM [inhibitor, single point]"}, {"compound": "CCOc1ccc(-c2cc(-c3nc(-c4ccc(C)cc4)no3)[nH]n2)cc1", "Potency": "inactive"}, {"compound": "C[C@@H]1COC(=O)[C@@H](CC(=O)OC(C)(C)C)C/C=C\\C[C@H](CC(=O)NCCO)C(=O)N1", "Potency": "inactive"}, {"compound": "C=C(C)CNC(=S)N/N=C(\\C)c1ccc(OC)cc1", "Potency": "inconclusive: 11.2 µM [inhibitor, single point]"}, {"compound": "CCNC(=S)N1CCN(c2nc(-c3cccc(OC)c3)cs2)CC1", "Potency": "inconclusive: 8.91 µM [inhibitor, partial curve]"}, {"compound": "O=C(CCc1ccccc1)Nc1nnc(-c2ccc3c(c2)CCCC3)o1", "Potency": "inconclusive: 35.5 µM [inhibitor, single point]"}, {"compound": "CN(Cc1ccccc1)S(=O)(=O)c1ccc(Cl)c(C(=O)N2CCC2)c1", "Potency": "inactive"}, {"compound": "CC(=O)N1c2c(cc(Br)cc2S(=O)(=O)N2CCN(c3ccccc3)CC2)CC1C", "note": "(stereo not given)", "Potency": "inconclusive: 35.5 µM [inhibitor, single point]"}, {"compound": "CCOc1ccc(S(=O)(=O)NCCC(=O)N2CC(C)CC(C)C2)cc1", "note": "(stereo not given)", "Potency": "inactive"}, {"compound": "COC(=O)c1sc2nc(C)cc(-c3ccccc3)c2c1N", "Potency": "inactive"}, {"compound": "CCN1CCN(c2cc(-c3ccccc3)nc3cc(-c4cccc(F)c4)nn23)CC1", "Potency": "inconclusive: 3.98 µM [inhibitor, full curve, poor fit]"}, {"compound": "CC(C)OC(=O)CSc1nnc2n1C(C)(C)Cc1ccccc1-2", "Potency": "inconclusive: 35.5 µM [inhibitor, single point]"}, {"compound": "Cc1ncc(CO)c(/C=N/Nc2cccc(Cl)n2)c1O", "Potency": "inconclusive: 22.4 µM [inhibitor, single point]"}, {"compound": "Fc1cccc(CSc2ccc3nnc(-c4cccnc4)n3n2)c1", "Potency": "inconclusive: 35.5 µM [inhibitor, partial curve, poor fit]"}, {"compound": "CCOc1ccccc1CNC(=O)CCn1ccc2cc(S(=O)(=O)N3CCCCC3)ccc21", "Potency": "inconclusive: 25.1 µM [inhibitor, single point] and inconclusive: 35.5 µM [inhibitor, single point]"}, {"compound": "CC1CC(C)CN(CCCNC(=O)c2csc3c2CCCCC3)C1", "note": "(stereo not given)", "Potency": "inconclusive: 35.5 µM [inhibitor, single point]"}, {"compound": "Cn1c(=O)c2sccc2n2c(CCCC(=O)Nc3ccc(Oc4ccc(Cl)cc4)cc3)nnc12", "Potency": "inconclusive: 12.6 µM [inhibitor, partial curve, poor fit]"}, {"compound": "Cc1ccc(NC(=O)C2(C)CCN2C2Cc3ccccc3C2)cc1", "note": "(stereo not given)", "Potency": "inconclusive: 11.2 µM [inhibitor, partial curve, poor fit]"}, {"compound": "O=C(Nc1nc2ccccc2s1)C1CCN(C(=O)c2ccco2)CC1", "Potency": "inactive"}, {"compound": "Cc1ccccc1NS(=O)(=O)c1ccc2[nH]c3c(c2c1)CCCCC3", "Potency": "inconclusive: 35.5 µM [inhibitor, single point]"}, {"compound": "Cc1cc(C)c2nc(NC(=O)C3CSC4(C)CCC(=O)N34)sc2c1", "note": "(stereo not given)", "Potency": "inconclusive: 10 µM [inhibitor, partial curve, poor fit]"}, {"compound": "CCOC(=O)c1cc(-c2ccccc2)n(CCC(=O)Nc2nc3c(C)cccc3s2)c1C", "Potency": "inconclusive: 2.82 µM [inhibitor, full curve, poor fit]"}, {"compound": "O=C(Nc1sc2c(c1C(=O)O)CCCCC2)c1ccco1", "Potency": "inconclusive: 0.794 µM [inhibitor, full curve, poor fit]"}, {"compound": "O=C1CC[C@@H](O)CCN1CC[C@H](Sc1ccc(Br)cc1)c1ccccc1", "Potency": "inconclusive: 14.1 µM [inhibitor, single point]"}, {"compound": "CCCCn1c(NC(=O)c2ccccc2)c(C#N)c2nc3ccccc3nc21", "Potency": "inconclusive: 31.6 µM [inhibitor, single point]"}, {"compound": "CC(C)(c1ccccc1)c1ccc(OCc2ccc(C(=O)O)o2)cc1", "Potency": "inactive"}, {"compound": "COc1ccc(OC)c(C2C(C#N)=C(N)Oc3c2c(C)nn3-c2cccc(Cl)c2)c1", "note": "(stereo not given)", "Potency": "inconclusive: 22.4 µM [inhibitor, single point]"}, {"compound": "Cc1cc(C(=O)COc2ccccc2[N+](=O)[O-])c(C)n1-c1cccc(S(=O)(=O)N2CCOCC2)c1", "Potency": "inconclusive: 3.16 µM [inhibitor, single point]"}, {"compound": "COc1cc(-c2cc(NC=O)c3ncc(-c4ccc(C(C)=O)cc4)n3c2)ccc1O", "Potency": "inconclusive: 12.6 µM [inhibitor, single point]"}, {"compound": "Cc1cc(-c2ccc(C)c(S(=O)(=O)Nc3cccc(C#N)c3)c2)on1", "Potency": "inconclusive: 35.5 µM [inhibitor, single point]"}, {"compound": "CSc1ccccc1CNc1nc(NCC2CC2)nc2ccsc12", "Potency": "active: 15.8 µM"}, {"compound": "COc1ccc(NC(=O)c2cc(N3C(=O)C4C5CCC(C5)C4C3=O)ccc2Cl)c(OC)c1", "note": "(stereo not given)", "Potency": "inactive"}, {"compound": "Cc1ccccc1-c1cc(C(=O)NCc2ccc3c(c2)OCO3)n(CC2CC(c3cccnc3)=NO2)n1", "note": "(stereo not given)", "Potency": "inactive"}, {"compound": "Cn1c(=O)n(CCc2ccccc2)c(=O)c2c1nc1n2CCCN1Cc1ccccc1", "Potency": "inactive"}, {"compound": "COc1ccccc1N1CCN(C(=O)c2cnc(N3CCCCC3)c3ccccc23)CC1", "Potency": "inconclusive: 28.2 µM [inhibitor, single point]"}, {"compound": "CNS(=O)(=O)c1cc(-c2nnc(Nc3cc(C)ccc3C)c3ccccc23)ccc1C", "Potency": "inconclusive: 35.5 µM [inhibitor, single point]"}, {"compound": "CCOC(=O)C1=C(C)N=c2s/c(=C\\c3ccc(OCC(=O)O)cc3)c(=O)n2C1c1ccc(OC(C)C)cc1", "note": "(stereo not given)", "Potency": "inconclusive: 35.5 µM [inhibitor, single point]"}, {"compound": "CC(C)(C)c1ccc(CSc2nnc(-c3ccccn3)n2Cc2ccco2)cc1", "Potency": "inconclusive: 11.2 µM [inhibitor, partial curve, poor fit]"}, {"compound": "O=C1C(=Cc2ccccn2)CCc2ccccc21", "Potency": "active: 10 µM"}, {"compound": "O=c1c2sccc2n(Cc2cc(=O)n3ccccc3n2)c(=O)n1-c1cccc(C(F)(F)F)c1", "Potency": "inactive"}, {"compound": "CCN(CC)c1ccc(/C=C2/SC(=O)N(C(C)C)C2=O)o1", "Potency": "inactive"}, {"compound": "COc1cccc2sc(=NC(=O)CS(=O)(=O)c3ccc(F)cc3)n(C)c12", "Potency": "inconclusive: 0.178 µM [inhibitor, full curve, poor fit]"}, {"compound": "C#CCCOC(=O)N1C2=NC(C(=O)OC)=C(C(=O)OC)[C@@H]3N(C)c4ccccc4[C@]23C[C@H]1C(=O)OC", "Potency": "inconclusive: 0.112 µM [inhibitor, full curve, poor fit]"}, {"compound": "O=C(/C=C/c1ccccc1Cl)NC1CCS(=O)(=O)C1", "note": "(stereo not given)", "Potency": "inactive"}, {"compound": "O=C(COC(=O)c1ccc(Cl)nc1)NC1CCCCCC1", "Potency": "inactive"}, {"compound": "Cc1nonc1CN(C)C(=O)CC1C(=O)NCCN1Cc1ccc(F)c(F)c1", "note": "(stereo not given)", "Potency": "inactive"}, {"compound": "CCOC(=O)C1=CN(Cc2cccc(F)c2)S(=O)(=O)N(C)C1CCc1ccccc1", "note": "(stereo not given)", "Potency": "inconclusive: 5.62 µM [inhibitor, partial curve, poor fit]"}, {"compound": "CSCCC(C(=O)Nc1c(C)cccc1C)N1CCN(c2ccc(F)cc2)CC1", "note": "(stereo not given)", "Potency": "inconclusive: 3.98 µM [inhibitor, full curve, poor fit]"}, {"compound": "O=C1C(=Cc2ccco2)CCC1=Cc1ccco1", "Potency": "inconclusive: 15.8 µM [inhibitor, single point]"}, {"compound": "COc1ccc(C2c3[nH]c4ccc(OC)cc4c3CCN2C(=O)Nc2ccccc2)cc1", "note": "(stereo not given)", "Potency": "active: 8.91 µM"}, {"compound": "CCOC(=O)C1=CN(Cc2cccc(Br)c2)S(=O)(=O)N(CC)C1C", "note": "(stereo not given)", "Potency": "inconclusive: 17.8 µM [inhibitor, single point]"}, {"compound": "N/C(=N\\OC(=O)Nc1ccccc1)c1ncc([N+](=O)[O-])s1", "Potency": "active: 11.2 µM"}, {"compound": "O=C1CN(C(=O)CNCc2cccc(Cl)c2)c2ccccc2N1", "Potency": "inconclusive: 5.01 µM [inhibitor, single point]"}, {"compound": "Cc1ccc2c(c1)[nH]c1c(=O)n(Cc3ccco3)cnc12", "Potency": "inconclusive: 15.8 µM [inhibitor, single point]"}, {"compound": "Cc1csc(=O)n1CC(=O)OCC(=O)c1c(N)n(CC(C)C)c(=O)n(C)c1=O", "Potency": "inconclusive: 1 µM [inhibitor, partial curve]"}, {"compound": "COc1ccc(-n2cc(CNCCc3nc(C)cc(C)n3)c(-c3ccccc3Cl)n2)cc1", "Potency": "inconclusive: 14.1 µM [inhibitor, single point]"}, {"compound": "Cc1ccc(C(=O)Nc2cccc(C(=O)O)c2)cc1S(=O)(=O)N1CCOCC1", "Potency": "inactive"}, {"compound": "COc1ccc2[nH]c3c(=O)n(CCCCC(=O)N4CCC(C(N)=O)CC4)c(=S)[nH]c3c2c1", "Potency": "inconclusive: 6.31 µM [inhibitor, single point]"}, {"compound": "CC(C)c1ccc(Nc2nc3c(S(=O)(=O)c4ccc(Br)cc4)nnn3c3ccsc23)cc1", "Potency": "inactive"}, {"compound": "CCCN(C(=O)c1cc2c(s1)-c1c(C)cccc1OC2)c1ccc(OCC)cc1", "Potency": "inactive"}, {"compound": "CCOC(=O)c1cc(-c2ccc(C)cc2)n(CC(=O)NC2CCCCCC2)c1C", "Potency": "inconclusive: 10 µM [inhibitor, partial curve, poor fit]"}, {"compound": "COc1cccc(NS(=O)(=O)c2ccc3c(c2)CCCN3C(=O)C2CCC2)c1", "Potency": "inconclusive: 15.8 µM [inhibitor, partial curve, poor fit]"}, {"compound": "O=C(OCc1cn([C@H]2CN(CC3CCCCC3)[C@@H](c3ccc(Cl)cc3)C[C@@H]2O)nn1)c1ccccc1", "Potency": "active: 17.8 µM"}]}]}
